{
  "source": "PubChem BioAssay AID1347165",
  "about": "(National Center for Advancing Translational Sciences (NCATS), 2019)",
  "note": "Hit rate of the full screen: of about 220,000 compounds, about 5,700 (2.6%) were called active. Inconclusive means that the source gave no clear call. Such entries were picked first, then a sample of the others. The call rests on the fitted dose curve; in most records, active means well fitted inhibition curve with a large enough effect; inconclusive means small, poorly fitted or top-dose-only effect; inactive means no such curve, though single readings can be large or run the other way. Potencies of inconclusive entries are doubtful fits and often do not repeat. Potency means the concentration at half of the fitted maximal effect; tags describe the fitted curve by direction and shape.",
  "data": [
    {"biological_target": "Lysine-specific demethylase 5B (Homo sapiens) (UniProt Q9UGL1)", "sequence (Q9UGL1 whole entry, looked up)": "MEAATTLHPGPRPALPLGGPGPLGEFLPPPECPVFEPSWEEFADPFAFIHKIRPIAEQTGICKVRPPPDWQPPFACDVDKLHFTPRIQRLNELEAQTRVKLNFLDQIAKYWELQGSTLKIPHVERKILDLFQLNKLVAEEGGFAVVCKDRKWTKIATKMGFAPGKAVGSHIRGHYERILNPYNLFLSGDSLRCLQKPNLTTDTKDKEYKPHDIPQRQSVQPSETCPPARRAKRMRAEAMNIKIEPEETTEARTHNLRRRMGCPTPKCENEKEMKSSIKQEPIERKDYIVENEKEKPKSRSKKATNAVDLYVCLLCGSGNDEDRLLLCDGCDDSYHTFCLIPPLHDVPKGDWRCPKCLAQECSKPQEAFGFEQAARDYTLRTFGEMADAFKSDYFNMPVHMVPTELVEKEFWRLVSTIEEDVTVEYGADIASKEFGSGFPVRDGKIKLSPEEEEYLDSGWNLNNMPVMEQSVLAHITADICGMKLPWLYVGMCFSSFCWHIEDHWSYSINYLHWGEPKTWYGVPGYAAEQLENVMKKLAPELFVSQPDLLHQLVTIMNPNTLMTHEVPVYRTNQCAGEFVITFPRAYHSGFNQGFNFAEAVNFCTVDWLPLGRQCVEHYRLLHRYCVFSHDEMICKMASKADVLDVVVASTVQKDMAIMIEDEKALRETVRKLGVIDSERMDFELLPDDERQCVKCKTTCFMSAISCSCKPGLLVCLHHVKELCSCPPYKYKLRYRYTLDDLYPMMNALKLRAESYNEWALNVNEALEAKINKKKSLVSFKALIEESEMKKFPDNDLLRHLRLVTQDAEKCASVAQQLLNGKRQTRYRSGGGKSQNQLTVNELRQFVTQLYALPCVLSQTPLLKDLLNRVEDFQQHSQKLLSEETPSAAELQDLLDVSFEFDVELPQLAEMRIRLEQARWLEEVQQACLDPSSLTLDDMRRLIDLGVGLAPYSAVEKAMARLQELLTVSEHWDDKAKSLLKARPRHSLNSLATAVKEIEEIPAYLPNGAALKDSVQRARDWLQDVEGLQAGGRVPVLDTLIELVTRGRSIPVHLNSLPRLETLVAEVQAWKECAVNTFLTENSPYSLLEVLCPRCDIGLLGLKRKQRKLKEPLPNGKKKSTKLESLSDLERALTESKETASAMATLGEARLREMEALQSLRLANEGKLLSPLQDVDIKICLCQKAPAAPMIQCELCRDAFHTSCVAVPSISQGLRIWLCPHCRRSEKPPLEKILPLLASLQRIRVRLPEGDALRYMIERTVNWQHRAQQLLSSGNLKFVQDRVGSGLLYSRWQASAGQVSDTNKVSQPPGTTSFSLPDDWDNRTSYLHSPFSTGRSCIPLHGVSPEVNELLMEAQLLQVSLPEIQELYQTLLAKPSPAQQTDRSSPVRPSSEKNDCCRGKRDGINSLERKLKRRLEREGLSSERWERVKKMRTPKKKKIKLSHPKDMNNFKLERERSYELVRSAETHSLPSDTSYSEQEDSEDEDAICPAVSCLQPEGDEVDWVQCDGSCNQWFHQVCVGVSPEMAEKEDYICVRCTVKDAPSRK", "test": "Primary screen for KDM5B Histone Demethylases FDH-coupled qHTS; further: nearly all actives have a fitted effect of over 70% in size; on activity change, negative = inhibition: 0% is about no effect", "settings": "FDH-coupled NADH fluorescence (FDH is formaldehyde dehydrogenase); activity change, negative = inhibition: at 57.7 µM (top of the series) unless noted", "how_it_was_run": "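Inhibition is measured as reduced NADH fluorescence generation from FDH coupling to formaldehyde release. Truncated KDM5BΔAP at 200 nM final acts on H3K4me3 peptide (12.5 µM in substrate mix) in pH 7.5 HEPES buffer with Tween-20, 30 min, room temperature.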", "values": [
      {"smiles": "CC(CC(=O)Nc1ccc(O)cc1)(C(=O)O)c1ccccc1", "note": "(stereo not drawn)", "Potency": "inconclusive: 12.6 µM [inhibitor, partial curve, poor fit]"},
      {"smiles": "O=C(c1ccc(F)cc1Cl)N1Cc2cnn(Cc3ccc(F)cc3)c2C1", "Potency": "inconclusive: 3.16 µM [inhibitor, full curve, poor fit]"},
      {"smiles": "Cc1onc(-c2ccccc2)c1-c1nnc(CN2CCN(CC(=O)N3CCCCCC3)CC2)o1", "Potency": "inconclusive: 25.1 µM [inhibitor, partial curve, poor fit]"},
      {"smiles": "CCNC(=O)N[C@H]1[C@H](O)[C@@H](Sc2ccccc2)[C@@H]2OC[C@H]1O2", "activity change, negative = inhibition": "inactive: 1.06% [at 86.2 µM]"},
      {"smiles": "CCOc1cc(C2NC(=O)c3c(sc4c3CCN(C)C4)N2)ccc1OC(=O)c1ccc(F)cc1", "note": "(stereo not drawn)", "Potency": "inconclusive: 31.6 µM [inhibitor, partial curve, poor fit]"},
      {"smiles": "CC1=C[C@@H](CN2CCOCC2)[C@H](C(C)C)C[C@H]1Cc1nnc(-c2ccncc2)o1", "Potency": "inconclusive: 28.2 µM [inhibitor, partial curve, poor fit]"},
      {"smiles": "COc1ccc(-c2nc(CN3CCC(F)(F)CC3)c(C)o2)c(OC)c1C", "activity change, negative = inhibition": "inactive: 5.14%"},
      {"smiles": "COc1ccc(C2=C(C(C)=O)Sc3nnc(-c4ccccc4)n3N2C(C)=O)cc1", "Potency": "inconclusive: 39.8 µM [inhibitor, single point]"},
      {"smiles": "CC(C)N1C(=O)CO[C@H]2CCN(Cc3ccccn3)CC[C@@H]21", "Potency": "active: 35.5 µM"},
      {"smiles": "Cc1ccc(C(=O)N2CCC3(CC2)CC(=O)c2ccccc2O3)cc1", "Potency": "active: 25.1 µM"},
      {"smiles": "c1cncc(CN2CCC(C3CCN(Cc4ccc[nH]4)C3)CC2)c1", "note": "(stereo not drawn)", "Potency": "active: 14.1 µM"},
      {"smiles": "O=C(Cn1c(=O)n(Cc2ccco2)c(=O)c2sc3ccccc3c21)Nc1ccccc1C(F)(F)F", "Potency": "inconclusive: 15.8 µM [inhibitor, partial curve, poor fit]"},
      {"smiles": "Cc1cccc2c1NC(=O)C21CC(=O)Nc2c1sc(C(=O)O)c2-c1ccccc1", "note": "(stereo not drawn)", "activity change, negative = inhibition": "inactive: -11%"},
      {"smiles": "COC(=O)c1c(NC(=O)COc2ccc(Cl)cc2C)sc2c1CCCCC2", "Potency": "inconclusive: 1.41 µM [inhibitor, full curve, poor fit]"},
      {"smiles": "COc1ccc2oc(=O)c(-c3csc(Nc4ccc(Cl)cc4)n3)cc2c1", "activity change, negative = inhibition": "inactive: -5.24%"},
      {"smiles": "O=C(c1ccc(OC(F)F)cc1)N1CCCC(O)(CN2CCCC2)C1", "note": "(stereo not drawn)", "activity change, negative = inhibition": "inactive: -16.7%"},
      {"smiles": "COc1ccc(C(CNCC(=O)Nc2ccccc2F)N(C)C)cc1", "note": "(stereo not drawn)", "Potency": "inconclusive: 2.82 µM [inhibitor, full curve, poor fit]"},
      {"smiles": "COc1cc(/C=C/C(=O)OCCOc2ccc(Br)cc2)ccc1O", "Potency": "inconclusive: 25.1 µM [inhibitor, partial curve, poor fit]"}
    ]}
  ]
}
